The text below walks through data of ChEMBL document CHEMBL4888484, “Replenishing the malaria drug discovery pipeline: Screening and hit evaluation of the MMV Hit Generation Library 1 (HGL1) against asexual blood stage Plasmodium falciparum ,using a nano luciferase reporter read-out” (2022).

Hit rate of the full screen: of about 150,000 compounds, about 540 (0.36%) showed an effect of 50% or more. This is one part of the list.

The test system of this assay is Plasmodium falciparum. Briefly: Primary screen in NF54 nanoGlo assay, in single point, at 2uM, 72h; a lower Z score goes with more inhibition. Particulars: timepoint 72 hour. In kind it is functional, Erythrocyte.
With `CCOc1ccc(N2C(=O)c3cc(-c4ccccc4)nn3C[C@@]2(C)C(=O)NCCCOC)cc1`, the % Inhibition – broadly, the drop in the measured response relative to a control, in per cent – is listed as -4% and the Z score was found to be 0.67.
The corresponding values for `Cc1cccc(Cn2c(=O)[nH]c3c(-c4ccccn4)nsc3c2=O)c1` are -1% and 0.14.
Taken in the same sequence, the figures for `Cc1ccc(NS(=O)(=O)c2cc(-c3c(C)noc3C)ccc2C)c(Br)c1` were -1% and 0.14.
The corresponding values for `CN1C(=O)CCN(C(=O)Cn2cc(C3CC3)cn2)c2ccccc21` are -12% and 1.74.
In the case of `O=C(Cn1cnnn1)NCCCc1ccc(Br)cc1F`, the “% Inhibition” value was determined as 0% and the Z score is on record as -0.03.
The corresponding values for `Cc1cc(CNC2CCN(c3ccc(N4CCN(C)C4=O)cc3)CC2)[nH]n1` are -10% and 1.23.
The corresponding values for `COc1ccc(Cc2nc(-c3ccc4c(c3)ncn4CCC(=O)N3CCCC3)no2)cc1Cl` are -6% and 0.81.
Taken in the same sequence, the figures for `CC(C)(C)N(CCS(C)(=O)=O)C(=O)c1cccc(F)c1Cl` were 4% and -0.35.
In the case of `O=C(Nc1ccc(Cl)cc1Cl)c1cc(O)n(-c2ccc(Cl)cc2)c(=O)n1`, the “% Inhibition” value is on record as -7% and the Z score is 0.79.
For the compound `Cc1ccc([C@H](C)NC2CCN(Cc3ccco3)CC2)cn1`, the “% Inhibition” value was -17% and the Z score came out at 1.55.
The corresponding values for `CC(C)(CN1CCCC1)CN1CCC[C@](C)(C#N)C1` are -2% and 0.2.
In the case of `CS(=O)(=O)N(CC(=O)NCCc1ccccc1)C1CCCCC1`, the “% Inhibition” value is given as -7% and the Z score turned out to be 1.37.
`C[C@](O)(CCNC(=O)NCC1CCOCC1)c1ccccc1`: the “% Inhibition” value is reported as -5% and the Z score amounted to 0.71.
The corresponding values for `COc1cc(C(=O)N2CCOC[C@@H](O)C2)ccn1` are -15% and 3.07.
As for `CCC(=O)NCc1nc2c(n1CC)CN(C(=O)c1ccc(C)s1)CC2`, the “% Inhibition” value was 2% and the Z score is reported as -0.26.
In the case of `COc1ccc(CN2CCOCCNC(=O)CC2)cc1Cc1c(C)noc1C`, the “% Inhibition” value turned out to be 5% and the Z score was -0.67.
Taken in the same sequence, the figures for `COCc1ccc(NC(=O)N2CCC[C@H](c3nc4c(s3)CCCC4)C2)cc1` were 2% and -0.19.
For the compound `Cc1ccc(NC(=O)c2cn(-c3cc(-c4noc(C)n4)ccc3C)nc2C)c(Br)c1`, the “% Inhibition” value was determined as 7% and the Z score was -1.26.
For the compound `CN(CCN(C)C1CCCC1)Cc1ccc(N(C)C)nc1`, the “% Inhibition” value is listed as -9% and the Z score amounted to 1.54.
The corresponding values for `O=C(CCCc1nc(C2CC2)no1)N1CCCCCc2ccccc21` are -14% and 1.52.
The corresponding values for `O=C(O)C1(Oc2ccc3c(c2)CCC3)CCN(c2ncc(F)cn2)CC1` are 1% and -0.12.
Taken in the same sequence, the figures for `C=CCC1(CC=C)CCCN1C(=O)[C@H]1CCC(=O)N(Cc2ccccn2)C1` were -14% and 1.59.
Regarding `Cn1c(C(=O)NC[C@H]2CCCO2)cc(=O)c2ccccc21`, the “% Inhibition” value was determined as 15% and the Z score is on record as -1.88.
Regarding `COC(=O)[C@@H](NC(=O)c1coc(Cn2cnc3ccccc32)n1)c1ccccc1`, the “% Inhibition” value is on record as -14% and the Z score worked out at 2.58.
Taken in the same sequence, the figures for `Cn1c(=O)c2c(ncn2CC(=O)OCc2nnc(-c3ccccc3)o2)n(C)c1=O` were -3% and 0.51.
For the compound `Cc1nc2ncccc2cc1C(=O)N1CCN(C)C(=O)C1`, the “% Inhibition” value is -15% and the Z score is 2.34.
`CCc1nn(C)c(CC)c1Cc1nc(C2(c3cccc(OC)c3)CC2)no1`: the “% Inhibition” value is on record as -13% and the Z score is listed as 2.26.
Taken in the same sequence, the figures for `CC(NC1CCCCNC1=O)c1nccn1C` (configuration not stated) were 1% and -0.15.
The corresponding values for `CCCCNC(=O)NCCCNc1ccncc1` are -6% and 1.
Taken in the same sequence, the figures for `Cc1cc(-c2ccc(=O)[nH]n2)cc(S(=O)(=O)N2CCc3ccccc32)c1C` were 5% and -0.87.
On to `CCn1cc(CN2CCCC23CCN(c2cccc(C)n2)CC3)c(C)n1`, for which the “% Inhibition” value is reported as 11% and the Z score is on record as -1.46.
Taken in the same sequence, the figures for `NC(=O)C1CCC(NC(=O)N2CC(O)(c3ccc(Cl)cc3)C2)CC1` (configuration not stated) were -9% and 0.93.
With `CC(=O)N1N=C(c2ccccc2NC(=O)c2ccc(Cl)cc2Cl)O[C@H]1c1ccc(N(C)C)cc1`, the “% Inhibition” value was 1% and the Z score is -0.15.
For the compound `CO[C@@H](c1noc(-c2cnn(C(C)(C)C)c2)n1)c1ccccc1Cl`, the “% Inhibition” value was -1% and the Z score amounted to 0.19.
Turning to `CCO[C@H]1CN(C)C[C@@H]1n1cnc2c(F)cccc2c1=O`, the “% Inhibition” value is -4% and the Z score was 0.67.
For `O=S(=O)(c1ccc(F)cc1Cl)N1CCCO1`, the “% Inhibition” value is recorded as -6% and the Z score amounted to 0.99.
Taken in the same sequence, the figures for `Cc1nc(NC(=O)COC2CCCC2)sc1C` were 15% and -1.93.
For the compound `O=S(=O)(N[C@@H]1CC=CCC1)c1ccc2c(c1)OCCO2`, the “% Inhibition” value is -10% and the Z score amounted to 1.83.
Taken in the same sequence, the figures for `Cn1ncc(CN2CCC(CS(C)(=O)=O)CC2)c1C(F)(F)F` were 5% and -0.93.
Taken in the same sequence, the figures for `CC(C)CNC(=O)CCN(Cc1ccco1)C(=O)c1csc(Nc2ccccc2F)n1` were 4% and -0.78.
Regarding `Cc1cc(=O)c(C(=O)NCCN2CCOCC2)c(CC2CCCC2)n1CCCN1CCCC1=O`, the “% Inhibition” value is recorded as 6% and the Z score is given as -1.15.
